From PubChem BioAssay AID1508623 (National Center for Advancing Translational Sciences (NCATS), 2021)
About 450 (0.94%) of roughly 48,000 compounds were called active. Inconclusive results (about 19%) are left out. The call rests on the fitted dose curve; in most records, active means well fitted inhibition curve with a large enough effect; inconclusive means small, poorly fitted or top-dose-only effect; inactive means no such curve, though single readings can be large or run the other way. This is one part of the list.

Assay: Primary qHTS for Identification of Small Molecule Inhibitors of Huntingtin Promoter Activity; further: nearly all actives have a fitted effect of over 50% in size
Conditions: HEK293 HTT promoter firefly luciferase reporter (activity 0% = vehicle and -100% = no light), 24 h; series mostly up to 57.5 µM; activity change, negative = inhibition: at the top concentration
In short: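 HEK293 cells carrying firefly luciferase reporters were seeded at 2,500 per well in Opti-MEM and cultured for 24 h. They were then treated with compounds at up to 57.5 uM final for 24 h at 37 degrees C before Dual-Glo luminescence readout.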
Potency means the concentration at half of the fitted maximal effect.

SMILES | activity change, negative = inhibition | Potency
O=C(CSc1ncc(-c2ccccc2)[nH]1)Nc1ccccc1 | inactive: 7.77% | 
CCOC(=O)C1CCN(C(=O)c2ccccc2NC(=O)c2nsc3ccccc23)CC1 | inactive: -8.73% | 
CCOC(=O)C1CCC(CN(Cc2ccc(Cl)cc2)S(=O)(=O)c2cccc(Cl)c2C)CC1 (stereo not drawn) | inactive: 14.4% | 
Cc1nc2nc(NC(=O)c3ccc(C(C)(C)C)cc3)[nH]n2c(=O)c1C | inactive: -4.88% | 
O=C(CCC1N=C2c3ccccc3N=C(SCC(=O)Nc3cccc(Cl)c3)N2C1=O)NCc1ccco1 (stereo not drawn) | inactive: -5.33% | 
NC(=O)C1CCN(S(=O)(=O)c2cc3c(cc2Cl)NC(=O)CO3)CC1 | inactive: -20.7% | 
CC1(C)S[C@@H]2[C@H](NC(=O)C(c3ccccc3)S(=O)(=O)O)C(=O)N2[C@H]1C(=O)O (stereo partly drawn) | inactive: 6.35% | 
CCc1ccc(OCC2c3cc(OC)c(OC)cc3CCN2C(=O)c2ccc(S(=O)(=O)N3CCCC3)cc2)cc1 (stereo not drawn) | inactive: -23.8% | 
CCn1cc(C(=O)NCCCOC(C)C)c(=O)c2cc(S(=O)(=O)N3CCOCC3)ccc21 | inactive: 1.74% | 
CCOC(=O)c1cnc2c(ccc3ccccc32)c1Nc1ccc(N(C)C)cc1 | inactive: -23.9% | 
Cc1cc(NC(=O)N2CCC(CN3CCCCCC3)CC2)ccc1Br | inactive: 9.38% | 
COC(=O)c1ccc2c(=O)n(CCCCCC(=O)NCCc3ccccc3)c(=O)[nH]c2c1 | inactive: 3.38% | 
CN(CCOc1ccc(CC2SC(=O)NC2=O)cc1)c1ccccn1 (stereo not drawn) | inactive | 
O=S(=O)(c1ccc(Cl)cc1)c1nnn2c1nc(NC1CCCC1)c1sccc12 | inactive: 2.72% | 
COc1ccc(N2CCN(C(CNS(=O)(=O)c3ccc(OC)c(C)c3)c3ccco3)CC2)cc1 (stereo not drawn) | inactive: -20.3% | 
COc1ccc(C)cc1-n1c(-c2ccc(Cl)cc2)cc2c1CC(C)(C)CC2=O | inactive: 4.27% | 
COc1ccc(-c2nc(Cn3c(=O)cc(C)c4c(C)nn(-c5ccccc5)c43)c(C)o2)cc1OC | inactive: -4.84% | 
Cc1ccc(NC(=O)Cn2c(=O)n(-c3ccc(C)cc3)c(=O)c3c2cnn3C)cc1 | inactive: -2.42% | 
Cc1ccc(-n2nc(C)c3c(C)c(CCC(=O)NC(C)c4ccccc4)c(C)nc32)cc1 (stereo not drawn) | inactive: -5.39% | 
Fc1ccc(CN2CCc3nc(N4CCN(c5ccccc5F)CC4)ncc3C2)c(F)c1 | inactive: -47.5% | 
CCOc1ccc(NC(=O)c2c(C)oc3nc(C)nc(N4CCCC4)c23)cc1 | inactive: -6.21% | 
COc1ccc(CCNC(=O)CCc2cn(Cc3ccccc3Cl)c3ccccc23)c(OC)c1 | inactive: -26.3% | 
O=C(NCCc1ccc(Cl)cc1)C1CCN(Cc2cc3ccccc3n2Cc2ccccc2)CC1 | inactive: -27.1% | 
CCOc1ccc(-c2cc(NC(=O)c3ccccc3)c(C(=O)OC)s2)cc1 | inactive: 9.29% | 

SMILES | activity change, negative = inhibition | Potency
COc1ccccc1CCNC(=O)c1cccn1-c1nnc(N2CCCC2)s1 | inactive: -1.66% | 
Cc1ccc(Cl)cc1N1CCN(c2ncnc3c2nc2n3CCCC2)CC1 | inactive: -4.71% | 
CCOc1ccc(Nc2cc(C)nc3nncn23)cc1 | inactive: -2.78% | 
Cc1ccccc1NC(=O)Cn1cc(S(=O)(=O)c2ccccc2)c(=O)c2ccccc21 | inactive: -15.2% | 
COc1ccc(NC(=O)c2cc3c(-c4ccccc4F)nn(C)c3s2)c(OC)c1 | inactive: -19.1% | 
CCCn1c2ccccc2c2cnn(CC(=O)NCCCN3CCCCC3CC)c(=O)c21 (stereo not drawn) | inactive: -8.32% | 
CC(CNC(=O)c1ccc(Cn2c(=O)c3cccn3c3cccnc32)cc1)c1ccccc1 (stereo not drawn) | inactive: -21.8% | 
COc1ccc(-c2c(C)c3cc(OC(=O)N4CCOCC4)ccc3oc2=O)cc1OC | inactive: -20.3% | 
COc1cc(CNC(=O)c2ccc3nc(Cc4ccccc4)oc3c2)cc(OC)c1OC |  | active: 14.1 µM
COc1cccc(C(=O)CC2(O)C(=O)N(Cc3ccccc3)c3ccccc32)c1 (stereo not drawn) | inactive: -19.6% | 
NC(=O)Cn1c(=O)n(CCCCCC(=O)NCc2ccc3c(c2)OCO3)c(=O)c2sccc21 | inactive: -0.616% | 
COc1cccc(Cn2nnc(C(=O)NCc3ccc(Cl)cc3Cl)c2N)c1 | inactive: -21.2% | 
CCc1cccc(NC(=O)Cn2c(=O)n3nc(-c4cccc(F)c4)nc3c3ccccc32)c1 | inactive: -23.5% | 
CCOc1cc2[nH]c(=O)n(CCCCC(=O)N3CCN(c4ccccc4OC)CC3)c(=O)c2cc1OCC | inactive: -16.1% | 
CCCCCCOC(=O)N=C(N)c1ccc(NCc2nc3cc(C(=O)N(CCC(=O)OCC)c4ccccn4)ccc3n2C)cc1 | inactive: -19.1% | 
Cc1cn2c(=O)cc(COC(=O)c3ccc(NC(=O)c4ccccc4C)cc3)nc2s1 | inactive: -13.4% | 
COc1ccc2c(c1)c1c(c(=O)n(-c3ccc(OC)c(OC)c3)c(=O)n1Cc1ccc(F)cc1)n2C | inactive: 2.62% | 
CCOC(=O)C1CCCN(c2c(C(=O)c3ccccc3)cnc3ccc(F)cc23)C1 (stereo not drawn) | inactive: -9.95% | 
Cc1ccccc1NC(=O)COc1ccc2oc3c(c2c1)CCCC3 | inactive: 4.66% | 
COc1ccc(-c2cc3nc(C)c(CCC(=O)NCCc4ccc(Cl)cc4)c(C)n3n2)c(OC)c1 | inactive: -17.2% | 
O=C(CN1C(=O)COc2ccc(S(=O)(=O)N3CCCCCC3)cc21)N1CCN(c2ccc(F)cc2)CC1 | inactive: -13.6% | 
Fc1cc(-c2cccc3ncc(-c4cnn(C5CCNCC5)c4)nc23)cc(F)c1CN1CCOCC1 | inactive: -9.86% | 
Cc1ccc(Cn2c(=O)c3cccnc3n(Cc3ccc(C)cc3)c2=O)cc1 | inactive: -4.87% | 
Cc1ccc(Cn2c(=O)n(-c3cccc(C(F)(F)F)c3)c(=O)c3c(C)c(C)sc32)c(C)c1 | inactive: -5.59% | 
